# In PubChem BioAssay AID652104 (National Center for Advancing Translational Sciences (NCATS), 2013):
# The whole screen tested about 410,000 compounds, of which about 7,200 (1.8%) were called active. Inconclusive results, whose numbers are uncertain, are shown with a selection of clear calls. The call rests on the fitted dose curve; in most records, active means well fitted activation curve with a large enough effect; inconclusive means small, poorly fitted or top-dose-only effect, or another doubt; inactive means no such curve, though single readings can be large or run the other way. Potencies of inconclusive entries are left out as doubtful fits.
# Experiment: qHTS of TDP-43 Inhibitors; further: nearly all actives have a fitted effect of over 50% in size; on growth rescue (activation): % of control where 0% means no effect
# Settings: TDP-43 expressing yeast growth rescue, BacTiter-Glo, 24 h; growth rescue (activation): at 46.1 µM (top of the series) unless noted
# How it was run: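 Luminescence from BacTiter-Glo reports growth of TDP-43-expressing yeast after 24 hr at 30 deg C with compound. Cells were raffinose-pregrown to mid-log, then seeded in galactose medium at OD600=0.02.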
# Potency means the concentration at half of the fitted maximal effect; tags describe the fitted curve by direction and shape.
Structure (SMILES),growth rescue (activation),Potency
CC(C)Cn1c(=O)c2ccccc2c2ccccc2c1=O,inconclusive: 44% [activator],–
CNC(=O)c1cnc2sc(N3CCC(C)CC3)nn2c1=O,–,inactive
CCCCOc1cccc(C2c3c(-c4cc(C)ccc4O)n[nH]c3C(=O)N2CCOC)c1 (stereo unspecified),–,"inconclusive [activator, full curve, poor fit]"
O=C(Nc1ccccc1C(=O)N1CCCCC1)c1nsc2ccccc12,–,"inconclusive [activator, single point]"
CCOC(=O)c1cc(C)n(Cc2ccccc2)c1C,–,"inconclusive [activator, single point]"
CCOc1ccc2nc(NC3=NC(C)(C)C=C(C)N3)nc(C)c2c1,–,inactive
CCCC(=O)N1CCN(c2nc(CC(C)C)c3c(c2C#N)CCC3)CC1,–,active: 11.2 µM
Cc1ccsc1C1CC(=O)Nc2ccccc2S1 (stereo unspecified),–,"inconclusive [activator, single point]"
N/C(Cc1cccc2ccccc12)=N\OC(=O)c1ccccc1F,–,active: 22.4 µM
O=C(Cc1ccc(-c2ccccc2)cc1)NCCS(=O)(=O)N1CCN(c2ccccc2F)CC1,–,"inconclusive [activator, full curve]"
COC(=O)C1CCN(C(=O)COc2ccc(Cl)cc2)CC1,–,inactive
O=c1c2ccccc2nc(/C=C/c2ccc(Br)cc2)n1CCCO,–,"inconclusive [activator, single point]"
CCc1ccc2oc(-c3cc(NC(=O)c4cccs4)ccc3Cl)nc2c1,–,active: 17.8 µM
CC(=O)c1ccc2c3c(ccc(O)c13)CC2,–,"inconclusive [activator, partial curve]"
COc1ccc(NCc2ccc([N+](=O)[O-])s2)cc1,–,"inconclusive [activator, single point]"
C[n+]1nc(Nc2ccccc2)sc1-c1ccc(O)cc1,–,"inconclusive [activator, partial curve]"
COc1ccccc1-n1c(SCC(=O)Nc2cccc(S(N)(=O)=O)c2)nc2ccccc2c1=O,–,inactive
CCC(=O)N1CCN(c2ccccc2NC(=O)COc2cccc(C)c2C)CC1,–,"inconclusive [activator, single point]"
CSC(=NC(C)c1ccccc1)NS(=O)(=O)c1cccs1 (stereo unspecified),–,"inconclusive [activator, partial curve]"
COc1ccc(/C=C2\SC(=Nc3ccccc3OC)NC2=O)cc1,–,"inconclusive [activator, single point]"
Cc1sc2ncn(CC(=O)NCCCC(=O)N3CCC(C(N)=O)CC3)c(=O)c2c1C,–,"inconclusive [activator, full curve, poor fit]"
Cc1ccc(C2=CC(c3ccccc3)n3ncnc3N2)cc1 (stereo unspecified),–,active: 12.6 µM
Cc1nnc(SC(C)C(=O)N2CCc3ccccc32)s1 (stereo unspecified),–,"inconclusive [activator, partial curve, poor fit]"
Cc1ccc(/C(N)=N/OC(=O)c2ccc(C)cc2Cl)cc1,–,active: 3.98 µM

Structure (SMILES),growth rescue (activation),Potency
O=C(Cc1cccc2ccccc12)NCCC1=CCCCC1,–,"inconclusive [activator, partial curve]"
CCCn1c2ccccc2c2cnn(CC(=O)N3CCCC(C(=O)OCC)C3)c(=O)c21 (stereo unspecified),–,inactive
CCc1cccc(NC(=O)C2CCN(c3ncnc4sc(C)c(C)c34)CC2)c1,–,"inconclusive [activator, partial curve]"
CCN1CCN(C(=O)Cn2ncc3c4ccccc4n(Cc4c(C)cc(C)cc4C)c3c2=O)CC1,–,inactive
Cc1nc(-c2ccc(S(=O)(=O)NCc3ccccc3Cl)cc2)co1,–,"inconclusive [activator, full curve, poor fit]"
O=C(c1ccc(S(=O)(=O)c2ccc(F)cc2)c([N+](=O)[O-])c1)N1CCCCCC1,–,"inconclusive [activator, partial curve]"
O=C(Nc1c2c(nn1-c1ccc(Cl)cc1)CS(=O)(=O)C2)c1ccc(Br)cc1,–,inactive
CCCn1c(SC(C)C(=O)N2CCOCC2)nc2ccc(Br)cc2c1=O (stereo unspecified),–,"inconclusive [activator, full curve, poor fit]"
COc1cccc(C(NC(C)=O)c2nc(-c3cccc(F)c3)cs2)c1 (stereo unspecified),–,inactive
c1ccc2c(c1)OCC(c1nnc3n1-c1ccccc1SC3)O2 (stereo unspecified),–,"inconclusive [activator, single point]"
Cc1ccc(OCCNC(=O)c2cccc(C)c2)cc1,–,"inconclusive [activator, full curve]"
Cc1nc2ccc(NC(=O)COc3ccccc3F)cc2s1,–,"inconclusive [activator, partial curve, poor fit]"
CC1Nc2ncnc(N3CCN(c4ccccc4)CC3)c2N(Cc2ccc(Br)cc2)C1=O (stereo unspecified),–,"inconclusive [activator, single point]"
CC(=NOC(=O)c1ccc(Cl)cc1)c1nccs1,–,"inconclusive [activator, partial curve]"
CC(C)c1ccccc1NC(=S)NN(Cc1ccccc1)c1ccccc1,–,"inconclusive [activator, single point]"
CCC1CCc2c(sc(NC(=O)c3cnccn3)c2C(N)=O)C1 (stereo unspecified),–,inactive
COc1ccccc1NS(=O)(=O)c1cc(Cl)ccc1OC,–,"inconclusive [activator, single point]"
Cn1c(=O)c2cc3ccc(Cl)cc3nc2n(C)c1=O,–,"inconclusive [activator, partial curve, poor fit]"
Cc1ccc(N(Cc2cc3ccc(C)cc3[nH]c2=O)C(=O)c2ccco2)c(C)c1,–,inactive
CCN(CCCNC(=O)Cn1ncc2c([nH]c3ccccc32)c1=O)c1cccc(C)c1,–,inactive
O=C(Nc1ccc2oc(-c3ccccc3Cl)nc2c1)c1ncn[nH]1,–,inactive
CCOc1cccc(NC(=O)C2CC(=O)N(C)C(=Nc3ccccc3)S2)c1 (stereo unspecified),–,"inconclusive [activator, single point]"
CCOc1ccc(-c2nc(C#N)c(NCC(C)C)o2)cc1,–,"inconclusive [activator, full curve, poor fit]"
O=c1c2oc3ccccc3c2n(Cc2ccccc2Cl)c(=O)n1Cc1ccc2c(c1)OCO2,–,inactive

Structure (SMILES),growth rescue (activation),Potency
CCN(C1CCCCC1)S(=O)(=O)c1ccc(S(=O)(=O)N2CCN(CCC#N)CC2)cc1,–,"inconclusive [activator, single point]"
COc1ccc(N(C(C)C(=O)N2CCC(Cc3ccccc3)CC2)S(C)(=O)=O)cc1 (stereo unspecified),–,"inconclusive [activator, partial curve]"
Cc1ccc2nc(SCC(=O)NCc3ccco3)nc(=O)n2c1,–,"inconclusive [activator, single point]"
COC(=O)c1ccccc1NC(=O)NCc1ccc2c(c1)CCN2C(=O)c1ccccc1,–,"inconclusive [activator, partial curve]"
CN1CCN(c2nc3cc(C(F)(F)F)ccc3n3cccc23)CC1,–,inactive
O=S(=O)(NCCc1csc2nc(-c3ccc(Cl)cc3)nn12)c1cccs1,–,inactive
Cc1ccc2c(c1)N(C(=O)N1CCC(C(=O)Nc3cccc(F)c3)CC1)CCO2,–,"inconclusive [activator, partial curve]"
CS(=O)(=O)c1ccc(NC(=O)c2cc3c(cc2Cl)N2CCCCCC2=NS3(=O)=O)cc1,–,"inconclusive [activator, single point]"
CCCc1cc(C(=O)Nc2ccc(C(=O)c3ccc(C)cc3)cc2)n(C)n1,–,"inconclusive [activator, single point]"
CN(Cc1ccccc1)c1nc2c(S(=O)(=O)c3cccc(Cl)c3)nnn2c2ccsc12,–,inactive
Cc1ccc(OCc2cc(C(=O)N(CCO)Cc3cccs3)no2)cc1C,–,"inconclusive [activator, partial curve]"
COc1ccc(Cc2nc3ccccc3n2CC(=O)N/N=C/c2ccc(C)cc2O)cc1OC,–,"inconclusive [activator, partial curve]"
Nc1ccc(Sc2ccccc2Cl)nc1,–,"inconclusive [activator, single point]"
CC1CCN(C(=O)CN2CC(C)Sc3ccccc32)CC1 (stereo unspecified),–,"inconclusive [activator, partial curve]"
CCOCCn1ccc2c(OCC(=O)Nc3cc(C)cc(C)c3)cccc2c1=O,–,"inconclusive [activator, partial curve, poor fit]"
Fc1ccccc1CNCC1CCCO1 (stereo unspecified),–,inactive
Cc1nn(C(=O)c2cccs2)c(N)c1-c1ccccc1,–,"inconclusive [activator, partial curve]"
O=[N+]([O-])c1cccc(-c2nnc(-c3ccccc3F)o2)c1,–,"inconclusive [activator, partial curve]"
COc1cc2c(C(=O)N3CCN(c4ccccc4C)CC3)c(C)oc2cc1Br,–,"inconclusive [activator, partial curve]"
Cc1cccc2cc3c(N)c(C#N)sc3nc12,–,active: 3.16 µM
CCn1c(=O)c([N+](=O)[O-])c(Cl)c2ccccc21,inconclusive: -93.1% [activator],–
CCOC(=O)C(NCCc1ccc(F)cc1)(NC(=O)CC)C(F)(F)F (stereo unspecified),–,"inconclusive [activator, single point]"
O=[N+]([O-])c1nn(-c2ccc(Cl)cc2)n(O)c1=NCc1ccccc1,–,"inconclusive [activator, partial curve]"
